Data reported in the supplement of paper PMC8728848.
Some of the results follow.

Columns and labels:
Test in all cases: glycan array binding signal (z-score within array); higher = stronger binding
Conditions in all cases: glycan notation: IUPAC condensed, linker removed
[1] = target: Gal(a1-4)Gal(b1-3)GlcNAc(b1-2)Man(a1-3)[Gal(a1-4)Gal(b1-3)GlcNAc(b1-2)Man(a1-6)]Man(b1-4)GlcNAc(b1-4)GlcNAc
In short: (§1)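 The binding signal is a Z-score computed within each array. Data were drawn from 3228 arrays in the Consortium for Functional Glycomics database, restricted to those with a known protein sequence. Scores were averaged over arrays of the same protein sequence at different concentrations or buffers, and over linkers, and negative values can be taken as non-binding.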

Gal(a1-4)Gal(b1-4)Glc = target: Gal(a1-4)Gal(b1-4)Glc
In short: as §1

Gal(a1-4)Gal(b1-4)GlcNAc = target: Gal(a1-4)Gal(b1-4)GlcNAc
In short: as §1

[2] = target: Gal(a1-4)Gal(b1-4)GlcNAc(b1-2)Man(a1-3)[Gal(a1-4)Gal(b1-4)GlcNAc(b1-2)Man(a1-6)]Man(b1-4)GlcNAc(b1-4)GlcNAc
In short: as §1

[3] = target: Gal(a1-4)Gal(b1-4)GlcNAc(b1-3)Gal(b1-4)Glc
In short: as §1

Gal(a1-4)GlcNAc = target: Gal(a1-4)GlcNAc
In short: as §1

Gal(a1-6)Glc = target: Gal(a1-6)Glc
In short: as §1

Gal(b1-2)Gal = target: Gal(b1-2)Gal
In short: as §1

Gal(b1-3)Gal = target: Gal(b1-3)Gal
In short: as §1

Gal(b1-3)Gal(b1-4)GlcNAc = target: Gal(b1-3)Gal(b1-4)GlcNAc
In short: as §1

[4] = target: Gal(b1-3)Gal(b1-4)GlcNAc(b1-2)Man(a1-3)[Gal(b1-3)Gal(b1-4)GlcNAc(b1-2)Man(a1-6)]Man(b1-4)GlcNAc(b1-4)GlcNAc
In short: as §1

Gal(b1-3)GalNAc = target: Gal(b1-3)GalNAc
In short: as §1

[5] = target: Gal(b1-3)GalNAc(a1-3)[Fuc(a1-2)]Gal(b1-4)Glc
In short: as §1

[6] = target: Gal(b1-3)GalNAc(a1-3)[Fuc(a1-2)]Gal(b1-4)GlcNAc
In short: as §1

Gal(b1-3)GalNAc(b1-3)Gal = target: Gal(b1-3)GalNAc(b1-3)Gal
In short: as §1

[7] = target: Gal(b1-3)GalNAc(b1-3)Gal(a1-4)Gal(b1-4)Glc
In short: as §1

[8] = target: Gal(b1-3)GalNAc(b1-4)Gal(b1-4)Glc
In short: as §1

[9] = target: Gal(b1-3)GalNAc(b1-4)Gal3S(b1-4)Glc
In short: as §1

[10] = target: Gal(b1-3)GalNAc(b1-4)[Neu5Ac(a2-3)]Gal(b1-4)Glc
In short: as §1

[11] = target: Gal(b1-3)GalNAc(b1-4)[Neu5Gc(a2-3)]Gal(b1-4)Glc
In short: as §1

Gal(b1-3)GlcNAc = target: Gal(b1-3)GlcNAc
In short: as §1

[12] = target: Gal(b1-3)GlcNAc(a1-3)Gal(b1-4)GlcNAc
In short: as §1

[13] = target: Gal(b1-3)GlcNAc(a1-6)Gal(b1-4)GlcNAc
In short: as §1

Gal(b1-3)GlcNAc(b1-2)Man = target: Gal(b1-3)GlcNAc(b1-2)Man
In short: as §1

[14] = target: Gal(b1-3)GlcNAc(b1-2)Man(a1-3)[Gal(b1-3)GlcNAc(b1-2)Man(a1-6)]Man(b1-4)GlcNAc(b1-4)GlcNAc
In short: as §1

[15] = target: Gal(b1-3)GlcNAc(b1-2)Man(a1-3)[Gal(b1-3)GlcNAc(b1-2)Man(a1-6)]Man(b1-4)GlcNAc(b1-4)[Fuc(a1-6)]GlcNAc
In short: as §1

[16] = target: Gal(b1-3)GlcNAc(b1-2)Man(a1-3)[GlcNAc(b1-4)][Gal(b1-3)GlcNAc(b1-2)Man(a1-6)]Man(b1-4)GlcNAc(b1-4)GlcNAc
In short: as §1

[17] = target: Gal(b1-3)GlcNAc(b1-2)[Gal(b1-3)GlcNAc(b1-6)]Man(a1-6)[Gal(b1-3)GlcNAc(b1-2)Man(a1-3)]Man(b1-4)GlcNAc(b1-4)GlcNAc
In short: as §1

[18] = target: Gal(b1-3)GlcNAc(b1-3)Gal(b1-3)GlcNAc
In short: as §1

[19] = target: Gal(b1-3)GlcNAc(b1-3)Gal(b1-4)Glc
In short: as §1

[20] = target: Gal(b1-3)GlcNAc(b1-3)Gal(b1-4)GlcNAc
In short: as §1

[21] = target: Gal(b1-3)GlcNAc(b1-3)Gal(b1-4)GlcNAc(b1-2)Man(a1-3)[Gal(b1-3)GlcNAc(b1-3)Gal(b1-4)GlcNAc(b1-2)Man(a1-6)]Man(b1-4)GlcNAc(b1-4)GlcNAc
In short: as §1

[22] = target: Gal(b1-3)GlcNAc(b1-3)Gal(b1-4)GlcNAc(b1-2)[Gal(b1-3)GlcNAc(b1-3)Gal(b1-4)GlcNAc(b1-6)]Man(a1-6)[Gal(b1-3)GlcNAc(b1-3)Gal(b1-4)GlcNAc(b1-2)Man(a1-3)]Man(b1-4)GlcNAc(b1-4)[Fuc(a1-6)]GlcNAc
In short: as §1

[23] = target: Gal(b1-3)GlcNAc(b1-3)Gal(b1-4)GlcNAc(b1-3)Gal(b1-4)Glc
In short: as §1

[24] = target: Gal(b1-3)GlcNAc(b1-3)Gal(b1-4)GlcNAc(b1-3)Gal(b1-4)GlcNAc(b1-2)[Gal(b1-3)GlcNAc(b1-3)Gal(b1-4)GlcNAc(b1-3)Gal(b1-4)GlcNAc(b1-6)]Man(a1-6)[Gal(b1-3)GlcNAc(b1-3)Gal(b1-4)GlcNAc(b1-3)Gal(b1-4)GlcNAc(b1-2)Man(a1-3)]Man(b1-4)GlcNAc(b1-4)[Fuc(a1-6)]GlcNAc
In short: as §1

[25] = target: Gal(b1-3)GlcNAc(b1-3)Gal(b1-4)GlcNAc(b1-6)[Gal(b1-3)GlcNAc(b1-3)]Gal(b1-4)Glc
In short: as §1

[26] = target: Gal(b1-3)GlcNAc(b1-3)Gal(b1-4)[Fuc(a1-3)]GlcNAc
In short: as §1

[27] = target: Gal(b1-3)GlcNAc(b1-3)Gal(b1-4)[Fuc(a1-3)]GlcNAc(b1-3)Gal(b1-4)Glc
In short: as §1

[28] = target: Gal(b1-3)GlcNAc(b1-3)Gal(b1-4)[Fuc(a1-3)]GlcNAc(b1-6)[Gal(b1-3)GlcNAc(b1-3)]Gal(b1-4)Glc
In short: as §1

[29] = target: Gal(b1-3)GlcNAc(b1-3)GalNAc
In short: as §1

[30] = target: Gal(b1-3)GlcNAc(b1-3)[Fuc(a1-3)[Gal(b1-4)]GlcNAc(b1-6)]Gal(b1-4)]GlcNAc(b1-6)[Gal(b1-4)]GlcNAc(b1-3)]Gal(b1-4)Glc
In short: as §1

[31] = target: Gal(b1-3)GlcNAc(b1-3)[Gal(b1-4)GlcNAc(b1-6)]Gal(b1-4)Glc
In short: as §1

[32] = target: Gal(b1-3)GlcNAc(b1-3)[Gal(b1-4)GlcNAc(b1-6)]Gal(b1-4)GlcNAc(b1-6)[Gal(b1-3)GlcNAc(b1-3)]Gal(b1-4)Glc
In short: as §1

[33] = target: Gal(b1-3)GlcNAc(b1-6)Gal(b1-4)GlcNAc
In short: as §1

[34] = target: Gal(b1-3)GlcNAc(b1-6)GalNAc
In short: as §1

B1: CLEC5A (Homo sapiens), Q9NY25 (protein)
chain: MNWHMIISGLIVVVLKVVGMTLFLLYFPQIFNKSNDGFTTTRSYGTVSQIFGSSSPSPNGFITTRSYGTVCPKDWEFYQARCFFLSTSESSWNESRDFCKGKGSTLAIVNTPEKLKFLQDITDAEKYFIGLIYHREEKRWRWINNSVFNGNVTNQNQNFNCATIGLTKTFDAASCDISYRRICEKNAK
- glycan array binding signal (z-score) [1]: 0.916
- glycan array binding signal (z-score) (Gal(a1-4)Gal(b1-4)Glc): -0.027
- glycan array binding signal (z-score) (Gal(a1-4)Gal(b1-4)GlcNAc): -0.183
- glycan array binding signal (z-score) [2]: 0.327
- glycan array binding signal (z-score) [3]: -0.093
- glycan array binding signal (z-score) (Gal(a1-4)GlcNAc): -0.125
- glycan array binding signal (z-score) (Gal(a1-6)Glc): 1.53
- glycan array binding signal (z-score) (Gal(b1-2)Gal): -0.149
- glycan array binding signal (z-score) (Gal(b1-3)Gal): -0.331
- glycan array binding signal (z-score) (Gal(b1-3)Gal(b1-4)GlcNAc): 0.082
- glycan array binding signal (z-score) [4]: 2.62
- glycan array binding signal (z-score) (Gal(b1-3)GalNAc): -0.065
- glycan array binding signal (z-score) [5]: 0.375
- glycan array binding signal (z-score) [6]: 0.4
- glycan array binding signal (z-score) (Gal(b1-3)GalNAc(b1-3)Gal): -0.077
- glycan array binding signal (z-score) [7]: -0.562
- glycan array binding signal (z-score) [8]: -0.149
- glycan array binding signal (z-score) [9]: -0.32
- glycan array binding signal (z-score) [10]: -0.23
- glycan array binding signal (z-score) [11]: -0.031
- glycan array binding signal (z-score) (Gal(b1-3)GlcNAc): -0.169
- glycan array binding signal (z-score) [12]: -0.184
- glycan array binding signal (z-score) [13]: -0.327
- glycan array binding signal (z-score) (Gal(b1-3)GlcNAc(b1-2)Man): -0.045
- glycan array binding signal (z-score) [14]: -0.204
- glycan array binding signal (z-score) [15]: 0.056
- glycan array binding signal (z-score) [16]: 0.22
- glycan array binding signal (z-score) [17]: 0.051
- glycan array binding signal (z-score) [18]: -0.038
- glycan array binding signal (z-score) [19]: -0.282
- glycan array binding signal (z-score) [20]: -0.278
- glycan array binding signal (z-score) [21]: 0.297
- glycan array binding signal (z-score) [22]: -0.042
- glycan array binding signal (z-score) [23]: 0.258
- glycan array binding signal (z-score) [24]: 0.061
- glycan array binding signal (z-score) [25]: -0.121
- glycan array binding signal (z-score) [26]: -0.082
- glycan array binding signal (z-score) [27]: -0.32
- glycan array binding signal (z-score) [28]: -0.154
- glycan array binding signal (z-score) [29]: -0.222
- glycan array binding signal (z-score) [30]: -0.32
- glycan array binding signal (z-score) [31]: -0.32
- glycan array binding signal (z-score) [32]: -0.32
- glycan array binding signal (z-score) [33]: -0.153
- glycan array binding signal (z-score) [34]: -0.196
